Assay results: article PMC4336329 (PLoS ONE, 2015)
The campaign covered roughly 310,000 compounds. About 2,200 (0.71%) showed an effect of 50% or more. Effects have a minus sign here. The list shows a part of the results.

Each compound was assayed against human ether-à-go-go-related gene (hERG) potassium channel (human, UniProt Q12809) (assay: primary screen, population patch clamp on CHO cells stably expressing hERG).
Chain of human ether-à-go-go-related gene (hERG) potassium channel (Q12809 whole entry, looked up): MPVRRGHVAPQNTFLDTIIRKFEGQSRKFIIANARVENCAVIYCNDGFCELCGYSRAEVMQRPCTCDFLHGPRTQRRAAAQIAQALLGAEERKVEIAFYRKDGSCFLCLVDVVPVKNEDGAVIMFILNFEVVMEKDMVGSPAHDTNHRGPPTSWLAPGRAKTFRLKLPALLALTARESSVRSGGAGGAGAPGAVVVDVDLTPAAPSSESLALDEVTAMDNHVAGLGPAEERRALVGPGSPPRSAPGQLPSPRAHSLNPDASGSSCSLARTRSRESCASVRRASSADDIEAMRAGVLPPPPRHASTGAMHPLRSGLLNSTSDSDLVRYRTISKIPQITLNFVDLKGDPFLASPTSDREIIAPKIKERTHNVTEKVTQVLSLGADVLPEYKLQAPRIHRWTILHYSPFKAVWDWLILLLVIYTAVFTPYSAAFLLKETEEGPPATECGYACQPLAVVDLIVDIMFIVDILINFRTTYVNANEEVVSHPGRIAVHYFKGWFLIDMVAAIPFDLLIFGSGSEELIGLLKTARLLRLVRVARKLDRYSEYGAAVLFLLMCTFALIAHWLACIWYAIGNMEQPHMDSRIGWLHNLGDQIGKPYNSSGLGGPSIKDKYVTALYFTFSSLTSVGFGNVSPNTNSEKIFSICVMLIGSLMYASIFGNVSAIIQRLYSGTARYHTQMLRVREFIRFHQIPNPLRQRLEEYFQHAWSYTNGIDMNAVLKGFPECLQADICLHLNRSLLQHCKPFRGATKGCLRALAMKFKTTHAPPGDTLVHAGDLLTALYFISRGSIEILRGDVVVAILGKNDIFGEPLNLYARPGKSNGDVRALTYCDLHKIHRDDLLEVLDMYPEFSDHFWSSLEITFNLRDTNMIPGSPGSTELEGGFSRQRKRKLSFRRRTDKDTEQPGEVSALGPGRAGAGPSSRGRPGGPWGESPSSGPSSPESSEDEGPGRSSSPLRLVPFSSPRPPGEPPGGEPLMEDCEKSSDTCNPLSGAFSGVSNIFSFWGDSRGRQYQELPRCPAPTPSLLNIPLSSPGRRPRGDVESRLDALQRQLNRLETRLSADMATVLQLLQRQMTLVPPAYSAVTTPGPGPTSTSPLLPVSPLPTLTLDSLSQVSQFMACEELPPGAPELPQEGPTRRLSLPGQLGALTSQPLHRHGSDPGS

First: COc1ccc(C(C(=O)NC2CCCC2)N(C(=O)c2snc(-c3ccc(F)cc3)c2N)c2ccc(OC)cc2)cc1 (stereo not drawn)
Second: COc1ccc2c(c1)c(=O)c(C(=O)c1ccc(C)cc1)cn2CC(=O)Nc1ccc(F)cc1
The “hERG current change (%, negative = inhibition) at 1uM” value of the first is lower: -2.68% for the first, 6.23% for the second.

First: Cc1ccc2nc(C)cc(C(=O)OCC(=O)Nc3cccnc3Cl)c2c1
Second: CCOC(=O)c1ccc(NC(=O)CSc2nnc(-c3cccs3)n2C)cc1
The “hERG current change (%, negative = inhibition) at 1uM” value of the first is lower: -4.13% for the first, 6.5% for the second.

Going from `CCCCC(=O)Nc1ccc2oc(-c3ccncc3)nc2c1` to `O=C(CNC(=O)c1ccc2c(=O)n3c(nc2c1)CCC3)Nc1ccc(F)c(F)c1`, the “hERG current change (%, negative = inhibition) at 1uM” value falls from 5.73% to -1.96%.

Compared with `CC(C(=O)c1ccccc1)n1cnc2ccccc2c1=O` (stereo not drawn), `CCNC(=O)c1cnn(-c2ccccc2)c1-c1ccccc1` is higher in “hERG current change (%, negative = inhibition) at 1uM” value: 9.56% for the first, 13.5% for the second.

First: C/C(=N\NC(=O)c1nnn(-c2nonc2N)c1-c1ccc2c(c1)OCO2)c1ccc(C)cc1
Second: C/C(=N\NC(=O)c1c(Br)c(C)nn1C)c1cccc(NC(=O)c2ccccc2F)c1
The “hERG current change (%, negative = inhibition) at 1uM” value of the first is higher: 15.3% for the first, 7.68% for the second.

Going from `O=C(O)c1ccc2c(=O)n3c(nc2c1)/C(=C/c1ccccc1C(F)(F)F)CCCC3` to `COc1c(C(=O)N2CCCC2)ccc2ccccc12`, the “hERG current change (%, negative = inhibition) at 1uM” value rises from 7.81% to 15.7%.

First: O=C(CN1C(=O)c2ccccc2C1=O)NCCc1c[nH]c2ccc(Cl)cc12
Second: O=C1C=C(c2ccc(Cl)cc2)C(=O)N1Nc1ccccc1
The “hERG current change (%, negative = inhibition) at 1uM” value of the first is lower: 0.521% for the first, 9.11% for the second.

First: Cc1ccccc1NC(=O)c1cnn(-c2ccccc2)c1C
Second: Cc1nn(-c2ccccc2)c(C)c1/C=N/NC(=O)c1cc(-c2ccc(Cl)s2)[nH]n1
The “hERG current change (%, negative = inhibition) at 1uM” value of the first is lower: 13.5% for the first, 15.7% for the second.

First: COc1ccc(S(=O)(=O)N2CCCCC2)cc1N(C)S(=O)(=O)c1ccccc1
Second: CC(=O)Nc1ccc(S(=O)(=O)N2CCCN(S(=O)(=O)c3ccc(C)cc3)CC2)cc1
The “hERG current change (%, negative = inhibition) at 1uM” value of the first is higher: 12.7% for the first, -10.1% for the second.

Compared with `COc1ccc(OC)c(CNC(=O)CCn2nc(C)c3c(C)n(-c4ccccc4)nc3c2=O)c1`, `COc1ccccc1N(CC(=O)NCCSCc1cccc(C)c1)S(=O)(=O)c1ccccc1` is lower in “hERG current change (%, negative = inhibition) at 1uM” value: 8.53% for the first, 2.44% for the second.

Going from `Nc1ccc2sc(N)nc2c1` to `Clc1cccc(Cl)c1Cl`, the “hERG current change (%, negative = inhibition) at 1uM” value falls from 15.6% to 11%.

First: Cc1cc(O)c(Sc2ccccc2)c(=O)o1
Second: CCC1CN(C(=O)NCc2ccccc2)c2cc(Cl)ccc2O1 (stereo not drawn)
The “hERG current change (%, negative = inhibition) at 1uM” value of the first is lower: 10.8% for the first, 11.2% for the second.

First: CCC(C)N1C(=O)S/C(=C/c2ccc(Sc3nc4ccccc4[nH]3)o2)C1=O (stereo not drawn)
Second: O=c1ccc(-c2nc3cc(Cl)ccc3n2Cc2ccccc2)c[nH]1
The “hERG current change (%, negative = inhibition) at 1uM” value of the first is higher: 15.2% for the first, -45% for the second.

Compared with `Cc1ccc(CNC(N)=S)cc1`, `Cc1ccc(CSC2=NCCN2C(=O)c2ccc([N+](=O)[O-])cc2)cc1` is lower in “hERG current change (%, negative = inhibition) at 1uM” value: 12% for the first, -2.5% for the second.

Going from `CCCCCCCCc1nc(=S)[nH][nH]1` to `CCCCc1c(O)nc(N2CCN(Cc3ccccc3)CC2)[nH]c1=O`, the “hERG current change (%, negative = inhibition) at 1uM” value falls from 16% to 7.48%.

Compared with `CCC(=O)Nc1sc2c(c1C(N)=O)CCC2`, `COC(=O)[C@H](C)NC(=O)NCCC1=CCCCC1` is lower in “hERG current change (%, negative = inhibition) at 1uM” value: 17.2% for the first, 15.4% for the second.

Going from `CN(C)S(=O)(=O)c1ccc(Cl)c(C(=O)NC2CCCCCCC2)c1` to `COc1ccccc1CCNC(=O)NC1CCCCC1`, the “hERG current change (%, negative = inhibition) at 1uM” value falls from 8.77% to 3.62%.

First: O=C(COC(=O)c1ccccc1OCC(=O)Nc1ccc(Br)cc1)Nc1ccccc1
Second: O=C(Nc1ccc(C(=O)N2CCOCC2)cc1)Nc1cccc2ccccc12
The “hERG current change (%, negative = inhibition) at 1uM” value of the first is lower: 11.5% for the first, 12.8% for the second.

Compared with `Oc1cccc(/C=N/Nc2cc(N3CCCC3)nc(N3CCCC3)n2)c1`, `Cc1nn(-c2ccc(N3CCCCC3)nn2)c(C)c1CCC(=O)Nc1ccc(F)cc1` is lower in “hERG current change (%, negative = inhibition) at 1uM” value: 8.58% for the first, 4.57% for the second.

Compared with `Cc1cc(Br)cc(Cl)c1OCC(=O)N1CCN(C(=O)c2ccco2)CC1`, `Cc1cccc(C)c1OCc1cc(C(=O)N2CCN3CCCC3C2)no1` (stereo not drawn) is higher in “hERG current change (%, negative = inhibition) at 1uM” value: -30.9% for the first, -0.209% for the second.

Compared with `O=C(CNCC1CCCO1)N1CCCc2ccccc21.O=C(O)C(=O)O` (stereo not drawn), `CN(C)CCCNCC(=O)Nc1ccccc1N1CCOCC1.O=C(O)C(=O)O` is higher in “hERG current change (%, negative = inhibition) at 1uM” value: 9.85% for the first, 17.6% for the second.

Compared with `CC12COC3(C(=O)Nc4cccnc4)CC1CCC32C` (stereo not drawn), `COc1ccc(C(=O)CC(=O)O)c2c1C=CC(C)(C)O2` is higher in “hERG current change (%, negative = inhibition) at 1uM” value: 2.96% for the first, 4.4% for the second.

First: NC(=O)N/N=C/c1ccc(-c2cccc(C(F)(F)F)c2)o1
Second: COC(=O)C1=C(c2ccc(Cl)c(C(F)(F)F)c2)C[C@@H]2CC[C@H]1N2C(=O)NCc1ccco1
The “hERG current change (%, negative = inhibition) at 1uM” value of the first is higher: 4.7% for the first, -5.46% for the second.

Going from `CCOc1cc2[nH]c(=O)n(Cc3ccc(C(=O)NCCCN4CCC(C)CC4)cc3)c(=O)c2cc1OCC` to `COc1cccc(CNC(=O)c2cccc(S(=O)(=O)N3CCN(c4ccc(F)cc4)CC3)c2)c1`, the “hERG current change (%, negative = inhibition) at 1uM” value rises from -0.543% to 10.6%.

Going from `CC(C)C(C(=O)Nc1ccc(S(=O)(=O)N2CCOCC2)cc1)N1C(=O)c2ccccc2C1=O` (stereo not drawn) to `O=C(Nc1ccc(C(=O)N2CCCCC2)cc1)c1ccc(Br)cc1`, the “hERG current change (%, negative = inhibition) at 1uM” value rises from -3.57% to 9.33%.

First: N#Cc1ccc(C(=O)Nn2cnnc2)cc1
Second: N#Cc1c(Nc2ccccc2Cl)s[nH]c1=O
The “hERG current change (%, negative = inhibition) at 1uM” value of the first is lower: 5.85% for the first, 9.71% for the second.

Compared with `O=C(O)C1CCCN1S(=O)(=O)c1cccc2nsnc12` (stereo not drawn), `CC(C)CCNC(=O)CCc1nnc2ccc(N3CCC(C)CC3)nn12` is lower in “hERG current change (%, negative = inhibition) at 1uM” value: 17% for the first, 8.56% for the second.

First: O=C(COC(=O)COc1ccc(Br)cc1)NCCC1=CCCCC1
Second: COc1ccc(-n2c(O)c(/C(C)=N/N3CCCCCC3)c(=O)[nH]c2=O)cc1
The “hERG current change (%, negative = inhibition) at 1uM” value of the first is higher: 1.54% for the first, 0.871% for the second.

`CN1C(=O)NC(=O)/C(=C\C=C\c2ccccc2[N+](=O)[O-])C1=O` was tested, and the “hERG current change (%, negative = inhibition) at 1uM” value was 1.99%.
